Sequences and labels used below:
B1: chr6:21593967:21594078:+|5pUTR|ENSG00000124766|unk|total|mutant (ssRNA)
RNA: GGGAGUUCUACAGUCCGACGAUCUCCGUGCCGAUUCCGCCCACAGAGAGUCCUGGAGCCACAGUCUUUUUUGCUUUGCAUUGCCGGAGAGGGACUAAGUGCCCGAGACUAUGUCGCUUUCCUGAGCUACCGAGAGCGCUCGUGCAACAGAGGAUUGAGCAUCA
B2: chr5:95604386:95604487:+|3pUTR|ENSG00000164291|msi1|FALSE|unique (ssRNA)
RNA: GGGAGUUCUACAGUCCGACGAUCCCUGCCAUCCAGUUCCCCCUCCAAGAAGCAAGUACCGAAACCACCUGCUUACGCAUUUUUAGAGAUUGGCCACAAAUUUAUAAACAAAUGUAUAUAUUCCUUUCCCCCUACACAAACGGUCAACAGAGGAUUGAGCAUCA
B3: chr10:110887682:110887783:+|CDS|ENSG00000150593|msi1|total|mutant (ssRNA)
RNA: GGGAGUUCUACAGUCCGACGAUCGUUAAGAGAUUUAAAUCUUGGUGAAAUGAAAAGUGGAGUACCAGUGUUGGCAGUAUCCUCCGCAUUGGAGGGGAAGGCCCGUCACCGAGAGAUGACAUCUAAGCUUCUUUCUGACCUUUGCAACAGAGGAUUGAGCAUCA
B4: chr15:73714018:73714119:+|3pUTR|ENSG00000103855|msi1|FALSE|unique (ssRNA)
RNA: GGGAGUUCUACAGUCCGACGAUCCCCACCCAUAAUUCUUACCCAGAGCAUGGGGUUGGGGCGGAAACCUGGAGAGAGGGACAUAGCCCCUCGCCACGGCUAGAGAAUCUGGUGGUGUCCAAAAUGUCUGUCCAGGUGUGGGCACAACAGAGGAUUGAGCAUCA
B5: chr1:208022241:208027242:-|three_prime_utr|ENSG00000076356|control|control|control (ssRNA)
RNA: GGGAGUUCUACAGUCCGACGAUCGAGACCCCAUCCUGGGGAGAGGGGAGGACUCCUCUCCCUACGCCAGCCAAGUUUCGUCAUAGCCAGUUCCAGCUGGGAGAGACAGUGGGCGUCGUCCAUCCUCAGUGAGAACACCAGAGACAACAGAGGAUUGAGCAUCA
B6: ENSG00000198589:be:win_7701|CDS|ENSG00000198589|bound_else_gene|NA|bound_elsewhere_windowed (ssRNA)
RNA: GGGAGUUCUACAGUCCGACGAUCUACAGGAAUGCACAGGAGGCAAAUCACUGACCUUUUAGACCAAAGUAUUCAAGUGCAUUCCCAGUGCUUUGUCAUCACUUCAGACAACCGCUAUAUUCUCGUCUGUGGCUUCUGGGAUAACAACAGAGGAUUGAGCAUCA
B7: chr12:12643182:12643283:+|3pUTR|ENSG00000111269|unk|FALSE|unique (ssRNA)
RNA: GGGAGUUCUACAGUCCGACGAUCCUGGAGUUGUGCACAGCACCGCAGCUAGUGGGCCUGGCUGGGGGUGCAGAAGGGCAGGGUAGUUCUUUCCAUUUCCCCUUGCAGCUACACUUACUUUCUCCCUGACUACCAAAUGGAGUGCAACAGAGGAUUGAGCAUCA
B8: chr1:203167810:203168091:-|three_prime_utr|ENSG00000133055|control|control|control (ssRNA)
RNA: GGGAGUUCUACAGUCCGACGAUCGGGCCAGGUCCACCAGGCCUACAGUCAAACUCCAGAGAUGCCCAAGACCCCCGCUUCCAUAGCGACGGCUGAUGGAACCGCCCCUGGUACCUGCUGGCCUCCCUUCCCCAGAGGCUGGUGCAACAGAGGAUUGAGCAUCA
B9: ENSG00000170743:stop:overlap|stop_codon|ENSG00000170743|stop_codon|NA|stop_codon (ssRNA)
RNA: GGGAGUUCUACAGUCCGACGAUCAUUUCCCCAGGGAGUGCAUCCUUUGGAAGGAUAUCGAAUAUGUCACCAAUAUUCUUAGCUAGCCCCUAAGAGACAGCAGGUGUUAUCUGUCCUCCGUACCACAUUUUCUUUAGAGCUUUUCAACAGAGGAUUGAGCAUCA
B10: chr1:108699644:108699745:+|CDS|ENSG00000134186|unk|total|mutant (ssRNA)
RNA: GGGAGUUCUACAGUCCGACGAUCGAUUCCAAGAAAGAGAAAAAACACAGCCGAAGCAGAAGCAGAGAAAGGAAACACAGAAGCCGGAGUCGAAGCCGAAAUGCAGGGAAACGAAGCCGAAGCCGAAGCAAAGAGAAAUCAAGUCAACAGAGGAUUGAGCAUCA
B11: chr22:41117408:41117517:+|CDS|ENSG00000100393|unk|total|mutant (ssRNA)
RNA: GGGAGUUCUACAGUCCGACGAUCCCAGGUCAAGUCAUGGCCAGCCAGGCCCAACAGAGCAGUCCUGGAUCCGGUUUGAUAAACCGCAUGGUCAAAAGCCCAAUGACACAGGCAGGCUUGACUUCUCCCAACAUGGGGAUGGGCCAACAGAGGAUUGAGCAUCA
B12: chr17:79089344:79090882:-|three_prime_utr|ENSG00000167281|control|control|control (ssRNA)
RNA: GGGAGUUCUACAGUCCGACGAUCAGACAGUGUGGAGCCCAGCGGCGGCGGAGCAGGCCCGGGCCUGAGCAGGCAGGCGCUGCUAGCAAGACUUGAUCUUUGUGGCCAGCUGUGCCAGGGGGCCGGCGGGGCUGAGGGGUGCGGCAACAGAGGAUUGAGCAUCA
B13: chr19:58354356:58356138:-|three_prime_utr|ENSG00000174586|control|control|control (ssRNA)
RNA: GGGAGUUCUACAGUCCGACGAUCUGGGAGUGCAGGGGCGGCCUUGGGUGUGGAGAACCCUGGCUGCACAGUCCCUUUGACGAUAGUCCACCGGCCACCCAGGCCUGUCUGGGGACAUGUAGGAUGGGCUCUUACCCCAGGGAGCAACAGAGGAUUGAGCAUCA
B14: chr1:113128187:113128288:+|3pUTR|ENSG00000198799|unk|total|mutant (ssRNA)
RNA: GGGAGUUCUACAGUCCGACGAUCUCAUACUUAUUUUCAAUCCUAAGUGUUCUCCCAUGGGCAGCAGCACUUCUUGAGCUGUUCCGUACUGCCACACCUUUUUAUGUCUUUACUAUGUCAGCCUCUGAUCAUUUUCACUUUGAACAACAGAGGAUUGAGCAUCA
B15: chr2:219567275:219567376:-|CDS|ENSG00000124006|msi1|FALSE|unique (ssRNA)
RNA: GGGAGUUCUACAGUCCGACGAUCUGUGUGCCCUCCGAGGGUGACUACCGCUUCCGCAUCUGCACAGUCAGCGGACAUGGCCGUAGUCCCCACGUGGUGUUCCACGGUUCUGCUCACCUUGGUGAGUUGGUCCUGCCAGACCCACAACAGAGGAUUGAGCAUCA
B16: chr1:154207159:154207278:-|3pUTR|ENSG00000143612|msi1_unk|FALSE|overlapping (ssRNA)
RNA: GGGAGUUCUACAGUCCGACGAUCUUCCCCAACCCUUCCUUAUGAGCAUUUUUAGAACAUUGGCUAAGACUAUUUUCCCCCAGUAGCGCUUUUUUCUGGAUUUGCAUUCAGGUGUUAUUCUUAAUGUUUCUGUCAAAGCUUCUUCAACAGAGGAUUGAGCAUCA
B17: chr17:2300308:2300409:-|CDS|ENSG00000070366|unk|total|mutant (ssRNA)
RNA: GGGAGUUCUACAGUCCGACGAUCGACCCAGAAAAUAAUCGGGGACAAGAAUCCUUUCCCCGGACUGCUGGACAAGAGGAUCGCCGUCUAAAAAUUAUCAAAAGAACAAAGAAACCCGACCUGCAGAUCUAUCAGCCUGGACGACAACAGAGGAUUGAGCAUCA
B18: chr6:36925443:36925544:+|3pUTR|ENSG00000198663|msi1|FALSE|unique (ssRNA)
RNA: GGGAGUUCUACAGUCCGACGAUCGAGGCAUCCCGUGGGAAAGUCCCCUAAGUCCCAUUUUGUACUUCAACAAAAAAUGACUGUAGCAGAAGAUAAGUGGAGACUUUUAUGGAUAUACUACUCAUUUUACUUAAAAUCUACCCACAACAGAGGAUUGAGCAUCA
B19: ENSG00000023516:stop:overlap|stop_codon|ENSG00000023516|stop_codon|NA|stop_codon (ssRNA)
RNA: GGGAGUUCUACAGUCCGACGAUCAAAAAGCUUCCAGUGAGGAGAGAUGCAAGUCGCUGUUUGAUUGGCUCUUGGAAAAUGCAUAGAGCAAACCCCAAACCAGUAUAUUUUAGUAUUUGUUUGGGGAGGGGAACAAGCCAAUAACAACAGAGGAUUGAGCAUCA
B20: ENSG00000107021:stop:overlap|stop_codon|ENSG00000107021|stop_codon|NA|stop_codon (ssRNA)
RNA: GGGAGUUCUACAGUCCGACGAUCACCCCAUCACAGAUGUCUGCCAGAUCCUGCAGAAAGCCAAGGAGCUCCAAGACUCAAAGUAGCCCGGCGGCAAGAGGCCCAUGUUCCGGAGAGAAGCCUCCCGACCCUGUGCCCUGGCUCCAACAGAGGAUUGAGCAUCA
B21: chr17:15628647:15628976:-|three_prime_utr|ENSG00000221926|control|control|control (ssRNA)
RNA: GGGAGUUCUACAGUCCGACGAUCUUUCCGGAGGCUCGGGGUCUAUAUCGACUUCCCGGGAGGGAUCCUUUCCUUCUAUGGCGUAGAGUAUGAUACCAUGACUCUGGUUCACAAGUUUGCCUGCAAAUUUUCAGAACCAGUCUACAACAGAGGAUUGAGCAUCA
B22: chr3:139561012:139561392:-|CDS|ENSG00000163864|control|control|control (ssRNA)
RNA: GGGAGUUCUACAGUCCGACGAUCGAAGGAUGCGCACAUCCAGGAAAUAGUGGAGAAGUUUGGCUUGGUGUGCGUGGGCCGAGUAGGUCACGACCCAAAAGGUUACAUCGCAGAAUCUCCCAUCCUACGGAUGCACCAGCACAACAACAGAGGAUUGAGCAUCA

Some of the results follow.

This test has as its target T1, UNK ZnF1-6 (called full-length) (human, UniProt Q9C0B0 30-357).
T1 sequence: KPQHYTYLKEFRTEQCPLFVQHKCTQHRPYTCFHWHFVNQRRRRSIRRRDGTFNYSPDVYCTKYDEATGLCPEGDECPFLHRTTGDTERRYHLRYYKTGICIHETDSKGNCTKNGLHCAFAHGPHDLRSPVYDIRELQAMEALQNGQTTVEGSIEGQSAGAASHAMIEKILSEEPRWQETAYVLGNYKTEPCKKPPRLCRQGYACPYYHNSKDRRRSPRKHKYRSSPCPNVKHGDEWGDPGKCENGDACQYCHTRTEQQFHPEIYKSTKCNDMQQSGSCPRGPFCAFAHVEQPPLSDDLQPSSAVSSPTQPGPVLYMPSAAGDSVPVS
Description: nsRBNS (natural sequence RNA bind-n-seq); RBNS binding buffer (assumed for nsRBNS): 25 mM Tris pH 7.5, 150 mM KCl, 3 mM MgCl2, 0.01% Triton X-100, 500 ug/ml BSA, 20 U/ml SUPERase-In, 4 C; UNK is unkempt and MSI1 is Musashi-1; names of the RNAs are library labels; protein concentration not given here; high values mean tight binding.
The molecule B1 yielded a binding signal of 0.735 enrichment R.

The molecule B2 came in with a binding signal of 1.43 enrichment R.

As to B3, the binding signal was 0.611 enrichment R.

B4 gave a binding signal of 0.628 enrichment R.

The molecule B5 showed a binding signal of 0.603 enrichment R.

Turning to B6, the binding signal is 0.691 enrichment R.

The molecule B7 showed a binding signal of 1.04 enrichment R.

For the molecule B8, the binding signal came out at 0.762 enrichment R.

Molecule B9 had a binding signal of 0.579 enrichment R.

In turn, B10 came in with a binding signal of 0.594 enrichment R.

In turn, B11 registered a binding signal of 0.718 enrichment R.

B12 showed a binding signal of 1.09 enrichment R.

Take B13: the binding signal amounted to 0.849 enrichment R.

Molecule B14 returned a binding signal of 0.612 enrichment R.

Molecule B15 gave a binding signal of 0.57 enrichment R.

The molecule B16 came in with a binding signal of 0.832 enrichment R.

For the molecule B17, the binding signal was 0.757 enrichment R.

B18 returned a binding signal of 0.663 enrichment R.

As for B19, the binding signal was 0.794 enrichment R.

B20 had a binding signal of 0.545 enrichment R.

For the molecule B21, the binding signal was 0.489 enrichment R.

The molecule B22 yielded a binding signal of 0.654 enrichment R.

The values above are taken from paper PMC12136788.
